In the supplement of paper PMC6089552:
The whole screen tested about 3,200 compounds, of which about 300 (9.4%) showed activity. Only a part is listed here, and it is no random draw.

System: A673/TR/shEF
Test: cell viability (LOESS-normalised, relative to median of negative controls) (log2 ratio); higher = more viable cells (less compound effect), active = hit call of the paper (over 3 MAD below the median)
Settings: treatment time: 72 h
In short: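 Viability of A673/TR/shEF Ewing sarcoma cells was determined by CellTiter-Glo luminescence. The cells, at 1,500 per well in 384-well plates, were grown with or without doxycycline from 24 h before compound addition to switch on EWS-FLI1 shRNA knockdown, then exposed for three days to library compounds at two or more concentrations or to DMSO controls. Signals were LOESS-corrected plate by plate, normalised to the negative-control median and log2-transformed.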

[1] = 0.25 µM, library screen: screen2, EWS-FLI1 expression: high (no doxycycline)
[2] = 0.25 µM, library screen: screen2, EWS-FLI1 expression: low (doxycycline-induced shRNA knockdown)
[3] = 2.5 µM, library screen: screen2, EWS-FLI1 expression: high (no doxycycline)
[4] = 2.5 µM, library screen: screen2, EWS-FLI1 expression: low (doxycycline-induced shRNA knockdown)
[5] = 0.25 µM, library screen: screen1, EWS-FLI1 expression: high (no doxycycline)
[6] = 0.25 µM, library screen: screen1, EWS-FLI1 expression: low (doxycycline-induced shRNA knockdown)
[7] = 2.5 µM, library screen: screen1, EWS-FLI1 expression: high (no doxycycline)
[8] = 2.5 µM, library screen: screen1, EWS-FLI1 expression: low (doxycycline-induced shRNA knockdown)
[9] = 0.025 µM, library screen: screen2, EWS-FLI1 expression: high (no doxycycline)
[10] = 0.025 µM, library screen: screen2, EWS-FLI1 expression: low (doxycycline-induced shRNA knockdown)
[11] = 0.103 µM, library screen: screen3, EWS-FLI1 expression: high (no doxycycline)
[12] = 0.103 µM, library screen: screen3, EWS-FLI1 expression: low (doxycycline-induced shRNA knockdown)
[13] = 0.308 µM, library screen: screen3, EWS-FLI1 expression: high (no doxycycline)
[14] = 0.308 µM, library screen: screen3, EWS-FLI1 expression: low (doxycycline-induced shRNA knockdown)
[15] = 0.926 µM, library screen: screen3, EWS-FLI1 expression: high (no doxycycline)
[16] = 0.926 µM, library screen: screen3, EWS-FLI1 expression: low (doxycycline-induced shRNA knockdown)
[17] = 2.8 µM, library screen: screen3, EWS-FLI1 expression: high (no doxycycline)
[18] = 2.8 µM, library screen: screen3, EWS-FLI1 expression: low (doxycycline-induced shRNA knockdown)
[19] = 8.3 µM, library screen: screen3, EWS-FLI1 expression: high (no doxycycline)
[20] = 8.3 µM, library screen: screen3, EWS-FLI1 expression: low (doxycycline-induced shRNA knockdown)
[21] = 25 µM, library screen: screen2, EWS-FLI1 expression: high (no doxycycline)
[22] = 25 µM, library screen: screen2, EWS-FLI1 expression: low (doxycycline-induced shRNA knockdown)
[23] = 25 µM, library screen: screen3, EWS-FLI1 expression: high (no doxycycline)
[24] = 25 µM, library screen: screen3, EWS-FLI1 expression: low (doxycycline-induced shRNA knockdown)

Measured: cell viability (log2)

Cc1ccccc1/C=C/C1=NCCN1
inactive: [1] 0.0935 | [2] 0.0996 | [3] 0.108 | [4] 0.0398

COc1cc(OC)c2c(=O)c(OC)c(-c3ccc(OC)c(OC)c3)oc2c1
inactive: [5] 0.019 | [6] 0.0595 | [7] 0.0902 | [8] -0.0343

CCC(c1ccc(O)cc1)C(CC)c1ccc(O)cc1 (stereo not given)
inactive: [9] 0.0967 | [10] 0.0512 | [11] 0.0624 | [12] 0.0579 | [5] 0.175 | [6] 0.195 | [1] 0.0602 | [2] 0.0273 | [13] -0.0519 | [14] -0.0221 | [15] 0.046 | [16] 0.0839 | [7] 0.196 | [8] 0.218 | [3] 0.0973 | [4] 0.0343 | [17] -0.0191 | [18] 0.0243 | [19] -0.064 | [20] 0.0359 | [21] 0.0788 | [22] 0.0603 | [23] 0.0343 | [24] -0.0133

CC(C)[C@@H]1CC[C@@H](C)C[C@H]1O
inactive: [5] 0.0972 | [6] 0.134 | [7] 0.106 | [8] 0.157

COc1ccc(CCN(C)CCc2ccc(OC)c(OC)c2)cc1OC
inactive: [1] 0.187 | [2] 0.0366 | [3] 0.198 | [4] 0.0294

CC[N+](CC)(CC)CC
inactive: [1] 0.151 | [2] 0.0491 | [3] 0.135 | [4] 0.00996

CC[C@@]1(O)C(=O)OCc2c1cc1n(c2=O)Cc2cc3cc(O)ccc3nc2-1
active: [5] -1.78 | [6] -0.267 | [7] -4.23 | [8] -1.06

O=c1c(O)c(-c2cc(O)c(O)c(O)c2)oc2cc(O)ccc12
inactive: [5] 0.128 | [6] -0.0317 | [7] 0.0648 | [8] 0.111

Cc1cccc(-c2[nH]c(C(C)(C)C)nc2-c2ccc3nccnc3c2)n1
inactive: [11] -0.0325 | [12] -0.0179 | [13] -0.00285 | [14] -0.00639 | [15] -0.0155 | [16] -0.0838 | [17] -0.0686 | [18] -0.0559 | [19] -0.0715 | [20] 0.000661 | [23] -0.0631 | [24] -0.000225

CCCCCCCCC#CCC#CCC#CCCCC(=O)O
inactive: [1] 0.185 | [2] 0.0923 | [3] 0.146 | [4] 0.00889

C[C@@H](c1ncncc1F)[C@](O)(Cn1cncn1)c1ccc(F)cc1F
inactive: [11] 0.083 | [12] 0.08 | [13] 0.0719 | [14] 0.0723 | [15] 0.0957 | [16] 0.0983 | [17] -0.0499 | [18] 0.0827 | [19] 0.0539 | [20] 0.0587 | [23] 0.12 | [24] 0.0979

O=c1cc(-c2cc(O)c(O)c(O)c2)oc2cc(O)cc(O)c12
inactive: [5] 0.0803 | [6] -0.0396 | [7] 0.109 | [8] 0.0724

O=C(O)Cc1ccccc1Nc1c(Cl)cccc1Cl
inactive: [11] 0.0847 | [12] -0.0311 | [5] 0.142 | [6] -0.0101 | [1] 0.241 | [2] 0.103 | [13] 0.0924 | [14] 0.103 | [15] 0.163 | [16] 0.0701 | [7] 0.178 | [8] 0.16 | [3] 0.2 | [4] 0.14 | [17] 0.0415 | [18] 0.0673 | [19] 0.045 | [20] 0.106 | [23] 0.0712 | [24] 0.146

C[C@@H]1O[C@@H](Oc2c(-c3ccc(O)c(O)c3)oc3cc(O)cc(O)c3c2=O)[C@H](O)[C@H](O)[C@H]1O
inactive: [5] 0.18 | [6] 0.0918 | [7] 0.201 | [8] 0.0421

N=c1ccn2c(n1)O[C@H]1[C@H](O)[C@@H](CO)O[C@H]12
active: [5] -0.254 | [1] -0.122 | [7] -1.03 | [8] -0.19 | [3] -0.641
inactive: [6] 0.0178 | [2] 0.0732 | [4] 0.0215

CC(=O)Oc1c(C)cccc1C(=O)O
inactive: [5] 0.0927 | [6] 0.104 | [7] 0.174 | [8] 0.0697

C[C@]12C=CC(=O)C=C1CC[C@@H]1[C@@H]2[C@@H](O)C[C@@]2(C)[C@H]1CC[C@]2(O)C(=O)CO
inactive: [11] 0.064 | [12] 0.0887 | [5] 0.0651 | [6] 0.0697 | [13] 0.104 | [14] 0.082 | [15] 0.0205 | [16] 0.129 | [7] 0.153 | [8] 0.0868 | [17] 0.0436 | [18] 0.149 | [19] 0.0419 | [20] 0.0583 | [23] -0.00834 | [24] 0.116

O=C(O)c1cc(=O)c2cccc(O)c2[nH]1
inactive: [5] 0.0329 | [6] 0.0229 | [7] 0.163 | [8] 0.138

O=c1[nH]cc(F)c(=O)[nH]1
inactive: [9] 0.207 | [10] 0.0564 | [11] 0.0782 | [12] 0.0161 | [5] 0.0591 | [6] -0.00519 | [1] 0.172 | [2] 0.0764 | [13] 0.113 | [14] 0.0726 | [15] 0.13 | [16] 0.0535 | [7] 0.0991 | [8] 0.0157 | [3] 0.104 | [4] 0.00707 | [17] 0.139 | [18] 0.018 | [19] 0.0774 | [20] 0.0748 | [22] -0.051 | [23] -0.0664 | [24] -0.00616
active: [21] -0.375

CS(=O)(=O)c1ccc([C@@H](O)[C@@H](CO)NC(=O)C(Cl)Cl)cc1
inactive: [5] 0.062 | [6] 0.0659 | [7] 0.0213 | [8] 0.137

CC(C)Cc1ccc([C@H](C)C(=O)O)cc1
inactive: [1] 0.0883 | [2] 0.0771 | [3] 0.157 | [4] 0.112

N[C@H](C(=O)O)[C@H](O)C(=O)O
inactive: [5] 0.18 | [6] 0.0569 | [1] 0.178 | [2] 0.0677 | [7] 0.199 | [8] 0.0519 | [3] 0.126 | [4] 0.101

COC(=O)[C@H]1[C@H]2C[C@@H]3c4[nH]c5cc(OC)ccc5c4CCN3C[C@H]2C[C@@H](OC(=O)c2cc(OC)c(OC)c(OC)c2)[C@@H]1OC
inactive: [11] 0.0733 | [12] 0.0139 | [5] 0.204 | [6] 0.178 | [13] 0.0695 | [14] 0.0618 | [15] -0.0278 | [16] 0.0749 | [7] 0.167 | [8] 0.286 | [17] 0.0985 | [18] 0.0485 | [19] 0.105 | [20] -0.0147 | [23] 0.0954 | [24] 0.0118

Cc1ccsc1C=C1SC(=S)N(CC(=O)O)C1=O
inactive: [5] 0.0973 | [6] 0.0799 | [7] 0.133 | [8] 0.152

N[C@H](Cc1ccccc1)C(=O)O
inactive: [5] 0.0727 | [6] 0.054 | [7] 0.169 | [8] 0.0792

O=c1c(-c2ccc(O)cc2)coc2cc(O)cc(O)c12
inactive: 0.025 µM, library screen: screen1, EWS-FLI1 expression: high (no doxycycline) 0.0443 | 0.025 µM, library screen: screen1, EWS-FLI1 expression: low (doxycycline-induced shRNA knockdown) -0.0387 | [5] 0.00753 | [6] 0.0689 | [1] 0.117 | [2] 0.0875 | [7] 0.106 | [8] 0.0455 | [3] 0.0598 | [4] 0.0712 | 25 µM, library screen: screen1, EWS-FLI1 expression: high (no doxycycline) 0.00624 | 25 µM, library screen: screen1, EWS-FLI1 expression: low (doxycycline-induced shRNA knockdown) 0.0488

C[C@H](NC(=O)Cc1cc(F)cc(F)c1)C(=O)N[C@@H]1C(=O)N(C)c2ccccc2-c2ccccc21
inactive: [11] -0.0495 | [12] -0.0175 | [13] -0.0169 | [14] 0.0261 | [15] -0.0343 | [16] -0.000446 | [17] -0.167 | [18] 0.0265 | [19] -0.145 | [20] -0.0275 | [23] -0.132 | [24] -0.0825

CN=C(NC#N)NCCSCc1nc[nH]c1C
inactive: [11] 0.0652 | [12] 0.116 | [5] 0.102 | [6] 0.00599 | [1] 0.174 | [2] 0.0763 | [13] 0.101 | [14] 0.0801 | [15] 0.128 | [16] 0.0772 | [7] 0.146 | [8] 0.0727 | [3] 0.0641 | [4] 0.048 | [17] 0.18 | [18] 0.0822 | [19] 0.114 | [20] 0.075 | [23] 0.114 | [24] 0.136

[Cl-].[Li+]
inactive: [1] 0.182 | [2] 0.0501 | [3] 0.154 | [4] 0.103

CCN(CC)CCNC(=O)c1ccc(NC(C)=O)cc1
inactive: [1] 0.0543 | [2] 0.0652 | [3] 0.101 | [4] 0.0714

CCCCCCN(CCCCCC)C(=O)Cc1c(-c2ccc(F)cc2)[nH]c2ccccc12
inactive: [1] 0.209 | [2] -0.0384 | [3] 0.0375 | [4] 0.0854
